Some of these densities may be calculated back from excess volumes.
Test: xn = mol fraction of the nth substance listed
Conditions: 100 kPa

SMILES: COCCOCCO + CCCC[n+]1ccn(C)c1.O=S(=O)([O-])C(F)(F)F
- mass density (298.15 K, x2 = 0): 1015.8 kg/m3
- mass density (298.15 K, x2 = 0.1): 1066.6 kg/m3
- mass density (298.15 K, x2 = 0.2056): 1111.4 kg/m3
- mass density (298.15 K, x2 = 0.3064): 1147.6 kg/m3
- mass density (298.15 K, x2 = 0.3986): 1176.1 kg/m3
- mass density (298.15 K, x2 = 0.4904): 1201.1 kg/m3
- mass density (298.15 K, x2 = 0.6945): 1246.8 kg/m3
- mass density (298.15 K, x2 = 0.7795): 1262.8 kg/m3
- mass density (298.15 K, x2 = 0.9015): 1283.1 kg/m3
- mass density (303.15 K, x2 = 0.1): 1062.3 kg/m3
- mass density (303.15 K, x2 = 0.2056): 1107.2 kg/m3
- mass density (303.15 K, x2 = 0.3064): 1143.4 kg/m3
- mass density (303.15 K, x2 = 0.3986): 1172 kg/m3
- mass density (303.15 K, x2 = 0.5981): 1222.7 kg/m3
- mass density (303.15 K, x2 = 0.6945): 1242.8 kg/m3
- mass density (303.15 K, x2 = 0.9015): 1279.1 kg/m3
- mass density (308.15 K, x2 = 0.1): 1058 kg/m3
- mass density (308.15 K, x2 = 0.2056): 1102.9 kg/m3
- mass density (308.15 K, x2 = 0.3064): 1139.3 kg/m3
- mass density (308.15 K, x2 = 0.3986): 1167.9 kg/m3
- mass density (308.15 K, x2 = 0.4904): 1193 kg/m3
- mass density (308.15 K, x2 = 0.5981): 1218.6 kg/m3
- mass density (308.15 K, x2 = 0.6945): 1238.8 kg/m3
- mass density (308.15 K, x2 = 0.7795): 1254.8 kg/m3
- mass density (308.15 K, x2 = 0.9015): 1275.2 kg/m3
- mass density (313.15 K, x2 = 0): 1002.5 kg/m3
- mass density (313.15 K, x2 = 0.1): 1053.6 kg/m3
- mass density (313.15 K, x2 = 0.2056): 1098.7 kg/m3
- mass density (313.15 K, x2 = 0.3986): 1163.9 kg/m3
- mass density (313.15 K, x2 = 0.4904): 1188.9 kg/m3
- mass density (313.15 K, x2 = 0.7795): 1250.8 kg/m3
- mass density (313.15 K, x2 = 0.9015): 1271.2 kg/m3
- mass density (318.15 K, x2 = 0.4904): 1184.9 kg/m3
- mass density (318.15 K, x2 = 0.5981): 1210.6 kg/m3
- mass density (318.15 K, x2 = 0.6945): 1230.9 kg/m3
- mass density (318.15 K, x2 = 0.7795): 1246.8 kg/m3
- mass density (318.15 K, x2 = 0.9015): 1267.3 kg/m3
- mass density (323.15 K, x2 = 0): 993.5 kg/m3
- mass density (323.15 K, x2 = 0.1): 1045 kg/m3
- mass density (323.15 K, x2 = 0.2056): 1090.3 kg/m3
- mass density (323.15 K, x2 = 0.3064): 1126.9 kg/m3
- mass density (323.15 K, x2 = 0.3986): 1155.7 kg/m3
- mass density (323.15 K, x2 = 0.4904): 1180.8 kg/m3
- mass density (323.15 K, x2 = 0.6945): 1226.9 kg/m3
- mass density (323.15 K, x2 = 0.9015): 1263.3 kg/m3

SMILES: CCCC[n+]1ccn(C)c1.O=S(=O)([O-])C(F)(F)F + COCCOCCO
- mass density (298.15 K, x1 = 1): 1297.7 kg/m3
- mass density (308.15 K, x1 = 1): 1289.8 kg/m3
- mass density (313.15 K, x1 = 1): 1285.8 kg/m3

Source: a compilation of properties of binary mixtures (doi:10.1016/j.molliq.2017.04.129)
